Measured values: PubChem BioAssay AID1508623 (National Center for Advancing Translational Sciences (NCATS), 2021)
Out of some 48,000 compounds screened, about 450 (0.94%) were called active. Another 19% or so got no clear call; they are omitted. The call rests on the fitted dose curve; in most records, active means well fitted inhibition curve with a large enough effect; inconclusive means small, poorly fitted or top-dose-only effect; inactive means no such curve, though single readings can be large or run the other way. The list shows a part of the results.

Assay: Primary qHTS for Identification of Small Molecule Inhibitors of Huntingtin Promoter Activity; further: nearly all actives have a fitted effect of over 50% in size
Details: HEK293 HTT promoter firefly luciferase reporter (activity 0% = vehicle and -100% = no light), 24 h; series mostly up to 57.5 µM; activity change, negative = inhibition: at the top concentration
In short: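 Firefly luciferase signal from promoter-reporter HEK293 cells was scaled between vehicle (0%) and zero RLU (-100%). Compounds were tested at final concentrations of up to 57.5 uM over 24 h at 37 degrees C. PTC124 at 50 uM final served as control inhibitor.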

Activity change, negative = inhibition, inactive:
Fc1ccc(NCc2nc3ccccc3n2CCOc2ccccc2Cl)cc1 -25.4%
CC1CCc2c(sc3nnn(CC(=O)Nc4ccccc4Cl)c(=O)c23)C1 (centres undefined) -15.3%
CCCn1cc(S(=O)(=O)c2ccc(OCC)cc2)c(=O)c2cc(C)ccc21 -25.3%
CCCCC(=O)Nc1cc(-c2cn3cccnc3n2)ccc1C -2.23%
CCOc1ccc(-c2c(C)nn3c(C)c(C(=O)NC(C)c4ccccc4)cnc23)cc1OCC (centres undefined) -26.6%
O=C(CCSCc1ccccc1Cl)NCCc1ccccc1 10.7%
Cc1c(-c2cccc(NC(=O)Cc3ccccc3)c2)nc2ncccn12 -3.93%
O=C(Cn1ccn(-c2ccc(F)c(F)c2)c(=O)c1=O)NCc1ccccc1 -2.91%
Cc1cc(C)c(NC(=O)c2cc(S(=O)(=O)N3CCCC3)cn2C)c(C)c1 -7.04%
Cc1ccc(OCCSc2nc3ccccc3n2CC(=O)N2CCOCC2)cc1C -20.2%
COc1cc(Cl)c(S(=O)(=O)N2CCN(c3c(C)cccc3C)CC2)cc1Cl -6.77%
COc1ccc(CNc2nc(-c3ccccc3)nn2C(=O)c2ccccc2OC)cc1 -2.23%
CCOC(=O)c1cc2c(=O)n3ccccc3nc2n(CC2CCCO2)c1=NC(=O)c1ccc(OCC)cc1 (centres undefined) -4.32%
CN(Cc1ccccc1)C(=O)c1c[nH]c2ccc(S(=O)(=O)Nc3ccccc3F)cc2c1=O 12%
CCOc1cc(C(=O)N2CC(=O)Nc3ccc(F)cc3C2c2ccccc2)cc(OCC)c1OCC (centres undefined) -15.7%
COc1ccc(N2CCN(CCCNC(=O)c3sc4ncccc4c3-n3cccc3)CC2)cc1 -25.9%
COc1cc2nc(NCCc3ccc(Cl)cc3)n3nc(-c4ccccc4)nc3c2cc1OC -10.1%
CCN(C(=O)c1nn(C)c2c1CSc1ccccc1-2)c1cccc(C)c1 -15.4%
COc1ccc(NC(=O)Cn2nc(C)c3c(C)n(-c4ccccc4)nc3c2=O)cc1OC 2.53%
CCCCCCCCCCCCCCCC(=O)OC(C)C 13.3%
CCOc1cc(-c2cc(C(=O)O)c3c(-c4ccccc4)[nH]nc3n2)ccc1O -0.714%
COc1ccc(S(=O)(=O)NCC(c2ccco2)S(=O)(=O)c2cccs2)cc1OC (centres undefined) -15.3%
Cc1ccc(C)c(Nc2nc(-c3ccccc3)c3cc(Br)ccc3n2)c1 -4.48%
COc1ccc(CCNC(=O)CCCCn2c(=O)c3ccccc3n(CC(=O)Nc3ccc(C)cc3C)c2=O)cc1OC -5.97%
O=C(COc1ccccc1)NCCc1csc(-c2cccc(F)c2)n1 -4.58%
N#Cc1cccc(NC(=O)Cn2nc(Cc3ccncc3)c3ccccc3c2=O)c1 -25.6%
CCN1C(=O)C(Cc2nc3ccccc3c(=O)n2-c2ccc(OC)cc2)c2cc(C)ccc21 (centres undefined) -19.3%
Cc1cccc(C(=O)Nc2cccc(OCc3cc(=O)n4cccc(C)c4n3)c2)c1 4.72%
CCN(CC)CCNC(=O)C(=O)NCC(c1cccnc1)N1CCN(c2ccccc2)CC1 (centres undefined) -22.5%
Cc1cc(Sc2ccc(Cl)cc2)nc2ccccc12 29.7%
O=C(CSc1ccccc1)NCc1ccc2c(c1)CCN2C(=O)c1ccc(Cl)cc1 -20.3%
CC(C)(C)OC(=O)N1CCC(c2c(C(=O)NC3CCCCC3)cnn2-c2cccc(F)c2)CC1 -8.08%
C/C(=N\O)c1ccc(OCC(=O)N2CCCCC2)cc1 10.6%
Cc1ccc(C(=O)c2ccc(CC(=O)O)n2C)cc1 4.6%
COC(=O)c1c(NC(=O)Cc2coc3ccc(C)cc23)sc2c1CCC2 -16.1%
COc1ccc(-n2nc(C(=O)Nc3ccc(Cl)cn3)c3c4ccccc4n(C)c3c2=O)cc1Cl -13%
Cc1ccc(CCNC(=O)c2cc(Nc3ccc(C)c(C)c3)nc3ccccc23)cc1 -13%
COc1ccc(C2C(C(N)=O)=C(C)Nc3nc(CCCO)nn32)cc1 (centres undefined) -0.443%
O=C(c1ccccc1Cl)N(Cc1ccco1)Cc1ccco1 -4.11%
Cc1cc(F)ccc1-n1nnc(C(N)=O)c1C 4.55%
CC(=O)c1cccc(NC(=O)c2c(-c3ccccc3)c(-c3ccccc3)nn(C)c2=O)c1 -11.3%
CN(Cc1ccccc1)c1ccc(-c2nc(-c3ccco3)no2)cc1[N+](=O)[O-] 20.6%
CCCCN(CCCC)CCCOC(=O)c1ccc(N)cc1 4.05%
Cc1cc(C(F)(F)F)nn1-c1nc(-c2ccccc2)cc(C(F)(F)F)n1 -28.4%
Cc1cc(=O)n(CC(=O)Nc2ccc([N+](=O)[O-])cc2)c(-n2nc(C)cc2C)n1 -20.6%
Cc1ccccc1NC(=O)Cn1c(=O)n(CCc2ccccc2)c(=O)c2sc3ccccc3c21 -2.09%
Cc1[nH]c2ccccc2c1C(c1ccccc1)c1cccs1 (centres undefined) -25.3%
O=C(O)CN1C(=O)c2cccc3cccc(c23)C1=O -0.0495%
Cc1cccc(-n2c(SCc3nc(-c4ccccc4C)no3)nnc2-c2ccccc2)c1 -8.1%
CN1CCN(c2oc(/C=C/c3ccc(F)cc3)nc2C#N)CC1 -9.84%
FC(F)(F)C(Cl)Br (centres undefined) 7.22%
COc1cc(NC(=O)c2nn(-c3ccc(C)cc3)c(=O)c3c2c2ccccc2n3C)cc(OC)c1OC -16.1%
CCc1nn(CC(=O)NC(C)CC)c(=O)c2cc3c(OC)cccc3n12 (centres undefined) -2.68%
CC[N+](C)(CC)CCOC(=O)C1c2ccccc2Oc2ccccc21 6%
CCOc1ccc(-n2nc(CO)c(C(=O)NCc3cccnc3)n2)cc1 -24.2%
COc1ccc(-c2noc(-c3ccc(N4CCN(c5ccc(OC)cc5)CC4)c([N+](=O)[O-])c3)n2)cc1 0.569%
Cc1cccn2c(=O)c(C(=O)NCc3ccccc3Cl)c(O)nc12 -6.58%
COc1cccc(N2CCN(C(=O)c3cc4c(=O)n(Cc5ccccc5)ccc4nc3C)CC2)c1 -30.6%
CCC(=O)N1c2ccccc2CC1C(=O)NCc1cccc(C)c1 (centres undefined) -24.7%
CCN(CC)CCCNC(=O)Cn1nc(C)n2c(cc3sccc32)c1=O -4.26%
Cc1ccc(C(=O)c2oc3ccccc3c2NC(=O)Cc2coc3cc(C)ccc23)cc1 -14.6%
COc1ccc(CCNC(=O)Cn2c(=O)n(-c3ccc(C)c(C)c3)c(=O)c3c(C)c(C)sc32)cc1OC -6.87%
COc1ccc(Cn2nnc3c(=O)[nH]c(C4CCCN(C(=O)c5ccc(C)cc5)C4)nc32)cc1 (centres undefined) -24.3%
CCCCc1ccc(NC(=O)Cn2nnc3sc4c(c3c2=O)CCC(C)C4)cc1 (centres undefined) -9.41%
COc1ccc(NC(=O)c2ccc3oc(=O)c(S(=O)(=O)c4ccc(C)cc4)cc3c2)cc1OC -8.16%
Cc1nn(S(=O)(=O)c2ccccc2)c(C)c1S(=O)(=O)N1CCC(C)CC1 -19%
COc1ccc(OC)c(C(=O)c2c(N)c(-c3nc(-c4ccc(C)c(C)c4)cs3)c3ccccn23)c1 -4.04%
Clc1cccc(CSc2nncn3c2cc2sccc23)c1 1.66%
CCOC(=O)C1(C)C=C(Nc2ccc(Br)cc2)C(=O)N1c1ccccc1 (centres undefined) 1.41%
COc1ccc(CC(=O)NC2CC(=O)N(c3cccc(F)c3)C2)cc1 (centres undefined) 0.322%
Cc1ccc(-c2nnc(Nc3ccc(Br)cc3)c3ccccc23)cc1S(=O)(=O)N1CCN(C)CC1 -33.2%
Cc1ccc(OCC(=O)Nc2ccc(OCc3cc(=O)n4cccc(C)c4n3)cc2)cc1C -7.75%
COc1ccc(CCNC(=O)Cc2c(C)c3c(cc(C)c4c(C)coc43)oc2=O)cc1OC -7.23%
CCN(C(=O)C(=O)Nc1ccc2nc3n(c(=O)c2c1)CCCCC3)c1ccc(F)cc1 0%
COc1ccc(CCNC(=O)c2ccc3c(c2)CCN3S(C)(=O)=O)cc1 -12.5%
Cc1c(C(=O)N(Cc2ccc(N(C)C)cc2)C2CCS(=O)(=O)C2)oc2ccccc12 (centres undefined) 3.97%
Cc1ccc2sc(N(Cc3cccnc3)C(=O)CCOc3ccccc3)nc2c1C -29.5%
O=C(O)CCCCCCCC(=O)O 9.71%
COc1ccc(OC)c(C2NC(=O)NC(C)=C2C(=O)Nc2cc(C)cc(C)c2)c1 (centres undefined) -7.98%
O=C(c1ccc2c(c1)N(Cc1ccccc1)C(=O)c1ccccc1S2(=O)=O)N1CCN(c2ccccc2)CC1 -12.8%
Cc1nnc(NC(=O)CSc2nc3c([nH]c4ccccc43)c(=O)n2-c2ccccc2)s1 0.496%
CC(O)CN(CCN(CC(C)O)CC(C)O)CC(C)O (centres undefined) -1.33%
COc1ccc(C2CC(=O)c3cc(-c4nc(-c5cccc([N+](=O)[O-])c5)cs4)c(=O)n(-c4ccc(C)c(C)c4)c3C2)cc1 (centres undefined) -11%
CCC(Sc1nc2ccccc2c2nc(CCn3cncc3C)nn12)C(=O)Nc1cccc(OC)c1 (centres undefined) -16.6%
CCC1CCCCN1CCCNC(=O)CN1C(=O)c2cccnc2Oc2ccc(Cl)cc21 (centres undefined) 5.9%
COc1ccc(Cn2c(CNC(=O)c3ccc(N(C)C)cc3)nc3cccnc32)cc1 -9.34%
O=C(Cn1cc(SCc2ccc(C(F)(F)F)cc2)c2ccccc21)N1CCCCCC1 -24.2%
Cc1ccc2oc(=O)c3cc(C(=O)Nc4ccc(F)cc4F)sc3c2c1 -4.67%
COc1ccc(CCNC(=O)c2ccc(Cn3c(=O)c4ccccc4n(Cc4cc(C)ccc4C)c3=O)cc2)cc1OC -7.03%
Fc1ccc(Nc2nc3ccccc3c3nncn23)c(Cl)c1 0.323%
Cc1cc(C)c2nc(N3CCCC(C(=O)NCc4cccc(Br)c4)C3)sc2c1 (centres undefined) 19.5%
Cc1ccc(NC(=O)c2oc3ccc(S(=O)(=O)N4CCCCCC4)cc3c2C)cc1Cl -6.87%
CC(C)CSc1nnc(-c2ccccc2)c(-c2ccccc2)n1 -22.5%
COc1ccc(C)c2sc(N(Cc3cccnc3)C(C)=O)nc12 -31%
Cc1ccc(Cl)cc1NC(=O)CN1C(=O)c2cccc3cccc1c23 -7.58%
COc1ccc(-c2nc3ccccc3s2)cc1NC(=O)COc1ccccc1C 0.31%
COc1ccccc1OCCn1c(NC(=O)c2ccc(Cl)cc2)nc2ccccc21 -10.6%
CN(C)c1ccc(CNC(=O)CN2C(=O)c3cccnc3Oc3ccc(Cl)cc32)cc1 6.19%
Cc1nn(CC(=O)NCc2cccc(Br)c2)c(=O)c2c1sc1ccccc12 -1.48%
